From PubChem BioAssay AID588855 (National Center for Advancing Translational Sciences (NCATS), 2011)
Values joined by “and” are separate entries in the source; they are usually repeats but may differ in a detail not shown here. Identical values can stand only once. Hit rate of the full screen: of about 410,000 compounds, about 5,000 (1.2%) were called active. The shares of active, inactive and inconclusive entries below differ from those in the screen. The call rests on the fitted dose curve; in most records, active means well fitted inhibition curve with a large enough effect; inconclusive means small, poorly fitted or top-dose-only effect; inactive means no such curve, though single readings can be large or run the other way. A potency beside an inconclusive call is a rough fit, not a confirmed value.

Test: qHTS for Inhibitors of TGF-b; further: nearly all actives have a fitted effect of over 65% in size
Details: HepG2 CAGA-GFP TGF-b/SMAD3 reporter, GFP fluorescence, 18 h, TGF-beta stimulated, 500 pg/mL final; series mostly up to 46.1 µM; activity, negative = inhibition: at the top concentration
Summary of the method: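 HEPG2 CAGA-GFP, 1000 cells/well; 2 h settle, 37 C; cpd via pin tool; TGF-b 500 pg/mL final; 18 h, 37 C; GFP imaging ex488/em500-530; %Activity normalised to -TGF-b and +DMSO controls; CRC fit, curve class.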
On the % scale 0 is the no-effect control and ±100 the full control effect; potency means the concentration at half of the fitted maximal effect; tags describe the fitted curve by direction and shape.

Row | Compound | Potency | activity, negative = inhibition
1 | COc1cccc(NS(=O)(=O)c2cc(-c3cnc(C4CC4)o3)ccc2C)c1 | active: 2 µM | 
2 | O=C1CC(N2CCN(c3nc4ccccc4s3)CC2)C(=O)N1Cc1cccs1 (stereo unspecified) | inconclusive: 35.5 µM [inhibitor, single point] | 
3 | O=C(Nc1cccc(N2C(=O)C3CCCCC3C2=O)c1)c1ccccc1 (stereo unspecified) |  | inactive: 3.14%
4 | COc1ccccc1-c1cc(C(F)(F)F)nc(S(=O)(=O)CCCC(=O)O)n1 | active: 17.8 µM | 
5 | CC1(C(=O)NCc2ccccc2)Cc2c(-c3cccc(C(F)(F)F)c3)ccnc2O1 (stereo unspecified) | inconclusive: 15.8 µM [inhibitor, single point] | 
6 | CCOc1ccc2nc(N(CCCN(C)C)C(=O)c3ccc4c(c3)CCCC4)sc2c1 | inconclusive: 20 µM [inhibitor, single point] | 
7 | COc1ccc(NC(=O)CN(C)S(=O)(=O)c2cnc[nH]2)cc1 | inconclusive: 35.5 µM [inhibitor, single point] | 
8 | Cc1ccc(NS(=O)(=O)c2cc(NC(=O)c3ccc4c(c3)NC(=O)CS4)ccc2Cl)c(C)c1 | inconclusive: 17.8 µM [inhibitor, single point] | 
9 | COc1cc(C(=O)NCCSc2c(C)[nH]c3ccccc23)cc(OC)c1OC |  | inactive: -3.16%
10 | Cn1ncc([N+](=O)[O-])c1C(=O)Nc1ccc(C2CCCCC2)cc1 |  | inactive: 2.84%
11 | CN(C)C(=O)c1ccc(S(=O)(=O)NCc2ccccc2Cl)s1 |  | inactive: -22%
12 | Cc1cccc(-c2cc3nc4c(c(NCc5ccco5)n3n2)CCCC4)c1 | inconclusive: 25.1 µM [inhibitor, single point] | 
13 | CCN(c1ccccc1)S(=O)(=O)c1ccc(Cl)c(NC(=O)CSc2nnc(C)s2)c1 |  | inactive: -14%
14 | CN1CCN(C(=O)c2ccc(-c3cnc4cccnn34)cc2)CC1 |  | inactive: 3.18%
15 | CC1=C(C(=O)Nc2ccccc2)C(c2ccccc2[N+](=O)[O-])NC(=O)N1 (stereo unspecified) | inconclusive: 6.31 µM [inhibitor, single point] | 
16 | O=C(c1cc([N+](=O)[O-])ccc1Cl)N1CCN(Cc2ccc3c(c2)OCO3)CC1 | inconclusive: 14.1 µM [inhibitor, partial curve, poor fit] | 
17 | COC(=O)C1=C(C)NC(=O)CC1c1cc2c(cc1Br)OCO2 (stereo unspecified) |  | inactive: -0.887%
18 | Cc1ccc(NC(=O)Nc2nnc(N3CCCCC3)s2)c(C)c1 |  | inactive: 3.32%
19 | CCC(=O)Oc1ccc(NC(=O)c2ccc(S(=O)(=O)N3CCCC3)cc2)cc1 |  | inactive: -6.91%
20 | COc1ccc(-c2nc(NC(=O)C3CC(=O)N(Cc4ccco4)C3)sc2C)cc1 (stereo unspecified) | inconclusive: 35.5 µM [inhibitor, single point] | 
21 | CCOc1ccc(-c2nnc(Nc3ccc(OC)c(C(=O)N4CCCCC4)c3)c3ccccc23)cc1 | inconclusive: 28.2 µM [inhibitor, single point] | 
22 | Cc1ccc2nc(-c3ccccc3)c(Cc3cccc(Cl)c3)n2c1 | active: 14.1 µM | 

Row | Compound | Potency | activity, negative = inhibition
23 | CC(C)(C)OC(=O)N1CCC(NC(=O)c2ncn(Cc3ccccc3)c2C(=O)NC2CCN(C(=O)OC(C)(C)C)CC2)CC1 | inconclusive: 12.6 µM [inhibitor, partial curve] | 
24 | COc1ccc(NC(=O)N2CCc3c(sc4c3CCCC4)C2c2ccc(F)cc2)cc1 (stereo unspecified) | inconclusive: 2.51 µM [inhibitor, partial curve, poor fit] | 
25 | O=S(=O)(c1ccccc1)N(CC(O)Cn1c2ccccc2c2ccccc21)c1ccccc1 (stereo unspecified) | inconclusive: 22.4 µM [inhibitor, single point] | 
26 | CC(C)(C)Nc1nc2cc([N+](=O)[O-])ccc2o1 |  | inactive: -1.95%
27 | O=C(CCSCc1ccccc1F)N1CCN(c2ccc(F)cc2)CC1 | inconclusive: 35.5 µM [inhibitor, single point] | 
28 | C=CCOc1ccc(/C=C/C(=O)OCC(=O)Nc2c(C)n(C)n(-c3ccccc3)c2=O)cc1 |  | inactive: 9.45%
29 | O=[N+]([O-])c1ccc(N2CCN(c3ccccc3Cl)CC2)cn1 |  | inactive: -0.709%
30 | CCc1nc2ccc(C(=O)Nc3cccc(OC)c3)cn2c1N(CCC(C)C)CCN(C)C | inconclusive: 31.6 µM [inhibitor, single point] | 
31 | O=C(NCCC1=CCCCC1)Nc1ccc2nsnc2c1 | inconclusive: 35.5 µM [inhibitor, single point] | 
32 | CC(C)CN(c1ccccc1)S(=O)(=O)c1nnc(NC(=O)c2ccco2)s1 | inconclusive: 0.708 µM [inhibitor, full curve, poor fit] | 
33 | CCOC(=O)CN1C(=O)C(O)(CC(=O)c2ccc3c(c2)CCCC3)c2ccccc21 (stereo unspecified) | inconclusive: 31.6 µM [inhibitor, partial curve, poor fit] | 
34 | O=C(Nc1ccccc1)Nc1cccc2nsnc12 | inconclusive: 0.112 µM [inhibitor, full curve, poor fit] | 
35 | O=C(CSc1nnc(-c2ccc(O)cc2)n1Cc1ccccc1)NNC(=O)c1ccc(Br)cc1 |  | inactive: 2.47%
36 | O=C1c2[nH]nc(-c3ccccc3O)c2C(c2cccc(Cl)c2)N1CC1CCCO1 (stereo unspecified) | inconclusive: 25.1 µM [inhibitor, single point] | 
37 | C=CCNC(=O)c1c(Cl)cccc1Cl | inconclusive: 0.891 µM [inhibitor, full curve, poor fit] | 
38 | COc1ccc(-n2ccnc2SCC(=O)Nc2ccccc2)cc1 | inconclusive: 7.94 µM [inhibitor, partial curve, poor fit] | 
39 | O=C1Nc2ccccc2/C1=C/c1cccnc1 |  | inactive: -3.3%
40 | COc1cc(C(=O)NCc2cccc(Cl)c2)ccc1OCC(=O)N1CCOCC1 | inconclusive: 35.5 µM [inhibitor, single point] | 
41 | CCc1nc2c(OCc3ccccc3)cccn2c1N(C)C(=O)Nc1ccccc1OC |  | inactive: -1.44%
42 | COc1ccc(C)cc1NC(=O)CN1CCN(c2ccc(F)cc2)CC1 |  | inactive: -13.5%
43 | CCCC(=O)N(c1ccc2oc(-c3ccccc3)c(C(=O)OCC)c2c1)S(=O)(=O)c1ccc(C)cc1 |  | inactive: -21%
44 | COc1ccc([N+](=O)[O-])cc1Nc1c2ccccc2nc2ccccc12 | inconclusive: 11.2 µM [inhibitor, partial curve] | 

Row | Compound | Potency | activity, negative = inhibition
45 | O=C(NCC(c1ccc2c(c1)OCO2)N1CCOCC1)c1ccc(F)cc1 (stereo unspecified) |  | inactive: -14.6%
46 | CCCCN1CC(c2nc3ccccc3n2CCCCOc2c(C)cccc2C)CC1=O (stereo unspecified) | inconclusive: 31.6 µM [inhibitor, single point] | 
47 | CC(=O)N[C@H]1C[C@@H]1c1ccccc1 | inconclusive: 12.6 µM [inhibitor, partial curve] | 
48 | Cc1cc(N(C)C)cc(C)c1/C=C/c1cc[n+](C)c2ccccc12 | active: 8.91 µM | 
49 | CCCCCC(C)NC(=O)CN1C(=O)NC(C)(c2ccc3ccccc3c2)C1=O (stereo unspecified) | inconclusive: 35.5 µM [inhibitor, single point] | 
50 | Cc1ccc(NC(=O)Cn2c(=O)n(-c3ccc(CC(=O)NCC4CCCO4)cc3)c(=O)c3ccccc32)cc1 (stereo unspecified) | inconclusive: 2.82 µM [inhibitor, partial curve, poor fit] | 
51 | O=C(/C=C/c1cccc(F)c1)NC1CCN(Cc2ccccc2)CC1 | inconclusive: 3.16 µM [inhibitor, single point] | 
52 | CCOc1cccc(/C=N/NC(=O)c2cccnc2)c1O | inconclusive: 7.08 µM [inhibitor, partial curve, poor fit] | 
53 | O=C(CCCC(=O)Nc1cccc(Br)c1)N/N=C/c1cc([N+](=O)[O-])ccc1O | inconclusive: 14.1 µM [inhibitor, partial curve] | 
54 | CSc1nc2ccc(S(=O)(=O)NC3CCCCC3)cc2s1 | inconclusive: 11.2 µM [inhibitor, partial curve, poor fit] | 
55 | Cc1ccc(N2CCN(C(=O)c3nn(C)c4c3CS(=O)(=O)c3ccccc3-4)CC2C)cc1 (stereo unspecified) | inconclusive: 4.47 µM [inhibitor, full curve, poor fit] and inconclusive: 2.82 µM [inhibitor, partial curve] | 
56 | COc1ccc(-c2sc3ccccc3c2C#CC2(O)CCCCC2)cc1 | inconclusive: 35.5 µM [inhibitor, single point] | 
57 | O=C(NCc1ccccn1)c1cc(S(=O)(=O)N2CCCCC2)ccc1Cl | inconclusive: 35.5 µM [inhibitor, single point] | 
58 | O=C(COc1ccccc1Cl)NCCC1=CCCCC1 | inconclusive: 10 µM [inhibitor, partial curve, poor fit] | 
59 | CCc1nc2ccc(C(=O)NCc3ccc4c(c3)OCO4)cn2c1N(CC)Cc1cccc(Br)c1 | inconclusive: 35.5 µM [inhibitor, single point] | 
60 | CCS(=O)(=O)c1c(Nc2ccc(F)c(Cl)c2)sc(C(=O)c2ccccc2)c1N | inconclusive: 28.2 µM [inhibitor, partial curve, poor fit] | 
61 | O=[N+]([O-])c1ccc(CN2CCN(c3ccc([N+](=O)[O-])cc3)CC2)cc1 | inconclusive: 8.91 µM [inhibitor, partial curve, poor fit] | 
62 | CCCCCSc1nnc2c(n1)OC(c1ccc(C)s1)N(C(C)=O)c1ccccc1-2 (stereo unspecified) | inconclusive: 12.6 µM [inhibitor, partial curve, poor fit] | 
63 | CCN(CC(=O)Nc1cccc(OC)c1)c1ncnc2sc(C)c(C)c12 | inconclusive: 0.398 µM [inhibitor, full curve, poor fit] | 
64 | CC(=O)N1c2c(ccc3ccccc23)C(C)CC12CCCCC2 (stereo unspecified) | inconclusive: 22.4 µM [inhibitor, single point] | 
65 | Cc1c(Cl)cccc1N1CC(c2nc3ccccc3n2Cc2ccccc2F)CC1=O (stereo unspecified) | inconclusive: 35.5 µM [inhibitor, single point] | 
66 | CC1CCCN(S(=O)(=O)c2ccc(S(=O)(=O)NC(C)c3cccs3)cc2)C1 (stereo unspecified) | inconclusive: 11.2 µM [inhibitor, partial curve] | 
